Laboratory results reported in PubChem BioAssay AID588579 (National Center for Advancing Translational Sciences (NCATS), 2011).
“And” between values parts separate entries of the source, which are not always exact repeats. Equal entries are not always repeated. The whole screen tested about 400,000 compounds, of which about 2,200 (0.55%) were called active. The inconclusive results got no clear call from the source; some entries with a clear call stand among them for comparison. The call rests on the fitted dose curve; in most records, active means well fitted inhibition curve with a large enough effect; inconclusive means small, poorly fitted or top-dose-only effect, or another doubt; inactive means no such curve, though single readings can be large or run the other way. A potency beside an inconclusive call is a rough fit, not a confirmed value.

These compounds were tested against DNA polymerase kappa (Homo sapiens) (UniProt Q9UBT6) (assay: qHTS for Inhibitors of Polymerase Kappa). Conditions: purified Pol kappa, fluorescent DNA synthesis assay, 10 min; series mostly up to 107 µM.
Chain of UniProt Q9UBT6 (Q9UBT6 whole entry, looked up): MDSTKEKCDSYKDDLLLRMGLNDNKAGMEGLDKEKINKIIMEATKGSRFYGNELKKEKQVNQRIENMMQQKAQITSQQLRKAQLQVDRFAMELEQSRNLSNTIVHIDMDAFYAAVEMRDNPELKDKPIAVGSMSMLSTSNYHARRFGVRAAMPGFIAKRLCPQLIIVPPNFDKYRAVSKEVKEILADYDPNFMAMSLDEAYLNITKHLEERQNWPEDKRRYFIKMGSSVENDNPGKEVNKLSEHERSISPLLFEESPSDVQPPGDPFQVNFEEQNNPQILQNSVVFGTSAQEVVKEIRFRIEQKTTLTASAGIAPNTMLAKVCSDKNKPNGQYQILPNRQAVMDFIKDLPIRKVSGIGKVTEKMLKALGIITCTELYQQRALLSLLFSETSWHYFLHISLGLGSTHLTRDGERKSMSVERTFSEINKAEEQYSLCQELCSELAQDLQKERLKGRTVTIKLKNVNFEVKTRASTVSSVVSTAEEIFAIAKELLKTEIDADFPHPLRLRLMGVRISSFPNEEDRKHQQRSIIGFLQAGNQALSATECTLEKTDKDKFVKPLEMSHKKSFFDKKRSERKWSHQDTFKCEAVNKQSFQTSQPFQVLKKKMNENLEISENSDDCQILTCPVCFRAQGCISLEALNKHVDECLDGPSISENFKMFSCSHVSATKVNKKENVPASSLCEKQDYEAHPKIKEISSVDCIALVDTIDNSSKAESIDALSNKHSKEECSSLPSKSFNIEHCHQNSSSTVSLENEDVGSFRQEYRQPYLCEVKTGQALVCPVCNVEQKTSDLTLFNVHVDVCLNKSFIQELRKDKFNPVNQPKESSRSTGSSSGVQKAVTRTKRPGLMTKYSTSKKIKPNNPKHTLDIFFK
How it was run: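 50 nM final substrate added after 15 min RT preincubation of 10 nM Pol kappa with compound; fluorescence read at 0 and 10 min.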
Potency means the concentration at half of the fitted maximal effect; tags describe the fitted curve by direction and shape.

Structure (SMILES) | Potency
COc1ccccc1CNC(=O)COC(=O)c1cc(-c2ccco2)nc2ccccc12 | active: 22.4 µM
COc1cc(OC)c(OC)cc1/C=C/c1cc[n+](C)c2ccccc12 | active: 89.1 µM
O=C(CSc1nnnn1-c1ccc(F)cc1)c1ccc(O)c(O)c1 | inconclusive: 79.4 µM [inhibitor, partial curve, poor fit]
Cc1ccc(CSC2=Nc3ccccc3C3=NC(CC(=O)NCc4ccco4)C(=O)N23)cc1 (configuration not stated) | inconclusive: 89.1 µM [inhibitor, partial curve, poor fit]
COc1ccccc1N1CC(C(=O)Nc2nnc(SCC(=O)N3CCCC3)s2)CC1=O (configuration not stated) | inactive
Cc1ccccc1Cn1c(=O)n(CCCCC(=O)NCc2ccccc2Cl)c(=O)c2ccccc21 | inactive
COc1ccccc1CNC(=O)C1CCN(Cc2cc3ccccc3n2Cc2cccc(C)c2)CC1 | inactive
O=C(NCc1ccc2c(c1)OCO2)C1CCN(C(=O)Nc2ccc(Cl)cc2)CC1 | inconclusive: 79.4 µM [inhibitor, partial curve, poor fit]
CN(C)c1ccc(/C=C/c2cc3ccccc3cn2)cc1 | inconclusive: 79.4 µM [inhibitor, partial curve, poor fit]
COc1cc2nc(N(C)C)nc(N)c2cc1OC | inactive
Cc1nccn1CCCNC(=O)CC1C(=O)NCCN1Cc1ccc(Cl)c(F)c1 (configuration not stated) | inconclusive: 89.1 µM [inhibitor, partial curve, poor fit]
CC(C(=O)NCc1cccc(Br)c1)n1ncn2cccc2c1=O (configuration not stated) | inconclusive: 35.5 µM [inhibitor, single point]
COc1ccc(C(=O)OCC(=O)NCc2ccco2)cc1OC | active: 79.4 µM
CN(C)S(=O)(=O)c1ccc(NC(=O)Cc2ccc(S(=O)(=O)N3CCOCC3)s2)cc1 | inconclusive: 79.4 µM [inhibitor, single point]
Cc1csc(N/N=C/c2ccc(O)c([N+](=O)[O-])c2)n1 | active: 22.4 µM
CC(=O)N[C@H]1C(O[C@@H]2O[C@H](C[C@@H](O)[C@H]3O[C@@H](N4CCC(=O)NC4=O)[C@H](O)[C@@H]3O)[C@H](O)[C@H](O)[C@H]2NC(=O)/C=C/CCCCCCCCCCC(C)C)OC(CO)[C@@H](O)[C@@H]1O (some centres not stated) | inconclusive: 25.1 µM [inhibitor, partial curve]
COc1ccc(Cl)cc1NC(=O)c1c(NCc2cccs2)sc2c1CCCC2 | inactive
CCC1(C(=O)c2ccc(Cl)cc2)C2c3ccccc3OC(=O)C21C(=O)Nc1ccccc1 (configuration not stated) | inconclusive: 89.1 µM [inhibitor, single point]
COc1ccc2c(c1)Cc1sc(NC(=O)c3ccc(Cl)cc3)nc1-2 | inconclusive: 89.1 µM [inhibitor, single point]
CN(CC(=O)Nc1ccc(F)cc1)C(=O)c1cc(-c2ccco2)nc2ccccc12 | inconclusive: 89.1 µM [inhibitor, single point]
Cc1cc(C(F)F)n2nc(C(=O)Nc3sc4c(c3C(N)=O)CCC4)nc2n1 | inconclusive: 79.4 µM [inhibitor, single point]
Cn1c(-c2ccc3nc(N)sc3c2)nc2cc(N)ccc21 | active: 70.8 µM
COc1cccc(C2C(C(=O)Nc3ccccc3)=C(C)N=c3s/c(=C/c4ccc(OCC(=O)O)cc4)c(=O)n32)c1 (configuration not stated) | inconclusive: 89.1 µM [inhibitor, partial curve, poor fit]

Structure (SMILES) | Potency
CCCOc1ccc(C(=O)Nc2sc3c(c2C(=O)OCC)CCCCC3)cc1 | inconclusive: 100 µM [inhibitor, single point]
CCc1ccc(CNC(=O)C2CCN(C(=O)c3ccc(-n4ccc5ccccc54)s3)CC2)cc1 | inconclusive: 100 µM [inhibitor, single point]
COc1ccc(C(=O)CCC(=O)Nc2cccnc2)cc1OC | inactive
N#C/C(=C\c1c(Oc2ccc(F)cc2)nc2ccccn2c1=O)c1nc2ccccc2s1 | inconclusive: 50.1 µM [inhibitor, partial curve, poor fit]
Cc1ccc(-c2nc3c(c(=O)[nH]c(=O)n3Cc3ccccc3)n2C)o1 | inconclusive: 63.1 µM [inhibitor, partial curve, poor fit]
Cc1ccccc1Cn1ccc(NC(=O)c2nn3cccnc3c2Cl)n1 | inactive
CC(=O)c1cccn1S(=O)(=O)c1ccccc1 | inactive
COc1ccc2[nH]c(C(=O)c3ccccc3)cc2c1 | inconclusive: 3.55 µM [inhibitor, partial curve, poor fit]
COc1cc(OC)c(OC)cc1/C=C1\Oc2cc(OCC(=O)N3Cc4ccccc4C[C@H]3C(=O)O)ccc2C1=O | active: 79.4 µM
CCOC(=O)C1Oc2ccccc2C(c2ccc(OC)cc2)=C1C(=O)OC (configuration not stated) | inconclusive: 56.2 µM [inhibitor, partial curve, poor fit]
COc1ccc(NC(=O)Cn2c(=O)n(Cc3ccc4c(c3)OCO4)c(=O)c3ccc(C(=O)NC4CCCCC4)cc32)cc1 | inactive
COc1ccc(-c2csc(NC(=O)c3ccccc3NS(=O)(=O)c3ccc(C)cc3)n2)cc1 | inconclusive: 89.1 µM [inhibitor, single point]
COc1ccc(/C=C/C(=O)NCCSCc2ccco2)cc1 | inconclusive: 89.1 µM [inhibitor, partial curve, poor fit]
COc1c(O)cc2oc3cc(O)c(CC=C(C)C)c(O)c3c(=O)c2c1CC=C(C)C | inactive and inconclusive: 31.6 µM [inhibitor, partial curve, poor fit]
CC(NC(=O)COC(=O)/C=C/c1ccc(Cl)cc1)c1ccccc1 (configuration not stated) | inconclusive: 89.1 µM [inhibitor, single point]
COc1ccc(C2=CC3=C(Br)C(=O)C(C)(OC(=O)C4CCCC4)C(=O)C3=CO2)cc1 (configuration not stated) | active: 79.4 µM
Cc1ccc[n+](-c2nc([O-])sc2C=O)c1 | inconclusive: 89.1 µM [inhibitor, single point]
O=C(O)c1ccccc1N/N=C/C1=C(N2CCOCC2)C(=C\c2ccccc2)/CC1 | inconclusive: 89.1 µM [inhibitor, single point]
O=C(COC(=O)C1=COCCO1)Nc1ccc(Cl)cn1 | inactive
CCOC(=O)c1cc2c(=O)n3ccccc3nc2n(Cc2ccco2)c1=NC(=O)c1ccc(C)c(C)c1 | inactive
O=C(O)CCCN1C(=O)C2C3C=CC(C2C1=O)C1C(=O)N(CCCC(=O)O)C(=O)C31 (configuration not stated) | inactive
O=C(Nc1cc(NC(=O)c2ccccc2)c(C(=O)O)cc1C(=O)O)c1ccccc1 | inconclusive: 26.7 µM [inhibitor, single point]
Cc1cccc(C(=O)OCC(=O)N(C)c2ccccc2)c1C | inactive

Structure (SMILES) | Potency
O=c1cc(CCl)nc2sc3ccccc3n12 | inconclusive: 89.1 µM [inhibitor, single point]
O=C(O)CCCCN1C(=O)/C(=C\c2ccc(OCc3ccccc3)c(OCc3ccccc3)c2)SC1=S | inconclusive: 100 µM [inhibitor, single point]
CN(CCc1cnn(C)c1)C(=O)C1CCC(=O)N(CC2CCCCC2)C1 (configuration not stated) | inactive
O=C(N/N=C/c1ccco1)c1cccc(N2Cc3ccccc3C2)c1 | active: 35.5 µM
O=C1NN(c2ccc(Cl)cc2)C(=O)/C1=C\c1ccc(-c2cccc(C(=O)O)c2)o1 | active: 20 µM
O=C1C=CC(=O)c2c(O)c(N3CCN(CCOCCO)CC3)c(Br)c(O)c21 | active: 28.2 µM
COc1ccc(-c2oc3ncn4nc(-c5ccccc5O)nc4c3c2-c2ccc(OC)cc2)cc1 | inactive
O=C(O)c1ccc2nc3c(nc2c1)-c1ccccc1C3=O | inactive
Cc1ccn2cc(CC(=O)O)nc2c1 | inconclusive: 89.1 µM [inhibitor, partial curve]
CC(C)Oc1ccccc1C1C=C(C(=O)O)Nc2ncnn21 (configuration not stated) | inactive
NC(=O)c1ccsc1NC(=O)COC(=O)CNC(=O)c1ccc(F)cc1 | inconclusive: 89.1 µM [inhibitor, partial curve, poor fit]
Cc1ccccc1NS(=O)(=O)c1ccc2[nH]cc(C(=O)N(C)Cc3ccco3)c(=O)c2c1 | inconclusive: 89.1 µM [inhibitor, single point]
C=CC(=O)N1C/C(=C/c2ccc(F)cc2)C(=O)/C(=C\c2ccc(F)cc2)C1 | active: 79.4 µM
O=C1CCCC2=C1C(c1ccc(O)c(O)c1)Nc1ccc3ncccc3c12 (configuration not stated) | active: 39.8 µM
CCc1ccccc1NC(=O)CN(C)S(=O)(=O)c1ccc2c(c1)c(=O)n(C)c(=O)n2C | inconclusive: 89.1 µM [inhibitor, single point]
O=C(CN1C(=O)C(=O)N(Cc2ccco2)C1=O)c1c[nH]c2ccccc12 | inconclusive: 100 µM [inhibitor, single point]
Cc1ccc(S(=O)(=O)N(C)C)cc1NC(=O)C1Cc2ccccc2CN1C(=O)c1ccco1 (configuration not stated) | inconclusive: 89.1 µM [inhibitor, single point]
CC(C)CC(CSc1ccc(Br)cc1)N1CCN(CCc2ccccc2)CCC1=O (configuration not stated) | inactive
O=c1cc(-c2ccc(Cl)c(Cl)c2)[nH][nH]1 | inactive
O=[N+]([O-])c1cccc(-c2csc(N/N=C/c3cccc(O)c3)n2)c1 | active: 79.4 µM
O=c1cc(-c2ccccc2Cl)oc2c(NS(=O)(=O)c3cc(Cl)cc(Cl)c3O)ccc(O)c12 | inconclusive: 79.4 µM [inhibitor, partial curve, poor fit] and inconclusive: 39.8 µM [inhibitor, single point]
